Reference: the BET-seq Pho4 binding data (Le et al. 2018)
The list shows a part of the results. The energies were worked out here from pooled read counts, against the library average; single values are noisy.

Target: T1, Pho4 (S. cerevisiae) (UniProt P07270)
T1 sequence: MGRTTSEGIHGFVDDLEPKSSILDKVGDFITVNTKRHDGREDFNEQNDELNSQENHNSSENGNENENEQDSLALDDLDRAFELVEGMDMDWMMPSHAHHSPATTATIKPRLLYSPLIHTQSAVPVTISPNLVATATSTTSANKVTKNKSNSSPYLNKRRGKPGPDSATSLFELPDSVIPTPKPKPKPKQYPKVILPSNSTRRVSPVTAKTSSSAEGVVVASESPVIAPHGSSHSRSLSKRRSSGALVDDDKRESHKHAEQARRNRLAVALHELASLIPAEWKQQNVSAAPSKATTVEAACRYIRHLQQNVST
Assay: relative binding free energy (BET-seq); higher = weaker binding
Details: reference: library average

Sequence	relative binding free energy
GTTATCACGTGCGGGC	0.31 kcal/mol
TTTTGCACGTGGTTTT	0.06 kcal/mol
AGCATCACGTGGGTCG	-0.01 kcal/mol
TAATACACGTGTCGGG	0.11 kcal/mol
AGGCACACGTGGAGTG	-0.05 kcal/mol
GAAATCACGTGGTTAT	0.27 kcal/mol
TGTCTCACGTGGTTCT	0.03 kcal/mol
TCCGTCACGTGGGGTT	0.01 kcal/mol
TTGTTCACGTGTTATT	0.22 kcal/mol
GTGAACACGTGTGGCG	-0.04 kcal/mol
CAGAACACGTGGTGTG	-0.04 kcal/mol
GTTTACACGTGCGTTG	0.03 kcal/mol
TTTAGCACGTGAAATA	0.15 kcal/mol
TATGTCACGTGTAGTA	-0.01 kcal/mol
TAGGTCACGTGTGGGG	0.17 kcal/mol
TTCGGCACGTGTTTCG	0.03 kcal/mol
ATATGCACGTGCGGGG	-0.08 kcal/mol
GGTTCCACGTGGGGTT	0.01 kcal/mol
TCTATCACGTGTGATG	0.11 kcal/mol
ATAGTCACGTGTTGTG	0.02 kcal/mol
AGGTGCACGTGTCGAT	0.01 kcal/mol
AGTTGCACGTGATTGA	0.09 kcal/mol
GAGGACACGTGTAAGT	0.18 kcal/mol
ATATCCACGTGAGTGG	0.32 kcal/mol
TTGTACACGTGTTTAC	0.04 kcal/mol

Sequence	relative binding free energy
TGAGGCACGTGGGGAC	-0.17 kcal/mol
TATGTCACGTGTGTCT	0.17 kcal/mol
TTGTCCACGTGGGTCA	-0.11 kcal/mol
CTTTTCACGTGATTTT	0.24 kcal/mol
GCGCGCACGTGTAGGG	-0.15 kcal/mol
TTGTTCACGTGTGGAA	0.26 kcal/mol
GGGGCCACGTGGGATA	-0.21 kcal/mol
AAAAGCACGTGTTGGT	-0.04 kcal/mol
GCATGCACGTGGTGGT	-0.09 kcal/mol
TGGTTCACGTGGTAAG	0.27 kcal/mol
TTGTACACGTGGCTTA	-0.1 kcal/mol
TTATGCACGTGTTGCG	-0.05 kcal/mol
TCATGCACGTGCTGTG	-0.07 kcal/mol
TTTGTCACGTGACAGG	0.18 kcal/mol
GTCCTCACGTGTGGGT	0.09 kcal/mol
CGTTGCACGTGTGAAG	0.06 kcal/mol
TATATCACGTGTTTAG	0.15 kcal/mol
CATGTCACGTGATTTG	0.25 kcal/mol
TGTGCCACGTGCGGTA	-0.21 kcal/mol
AGGCTCACGTGGTTCT	0.24 kcal/mol
GCTGACACGTGGTGGA	0.04 kcal/mol
AAGGGCACGTGTATTT	0.07 kcal/mol
GAGTTCACGTGGATGA	0.25 kcal/mol
TTGGGCACGTGTTGCG	-0.08 kcal/mol
TTAGACACGTGGTCGT	-0.07 kcal/mol

Sequence	relative binding free energy
TTATACACGTGTAGGT	0.06 kcal/mol
GGGGTCACGTGCTTTT	0.17 kcal/mol
ATGAGCACGTGTGAGC	-0.02 kcal/mol
GGGTACACGTGTGGAC	0.16 kcal/mol
TTCTGCACGTGATTAT	0.16 kcal/mol
TTTGCCACGTGCGTTG	-0.17 kcal/mol
GTCTTCACGTGGTGAG	0.35 kcal/mol
GTATACACGTGATGAG	0.09 kcal/mol
TGTTCCACGTGTTTAG	0.02 kcal/mol
TAGTTCACGTGCGCTG	0.22 kcal/mol
CGGTTCACGTGGTACT	0.2 kcal/mol
GATAACACGTGGGATT	0.04 kcal/mol
GTGAACACGTGTGCTT	0.14 kcal/mol
GATTGCACGTGATAGT	0.16 kcal/mol
GCTGTCACGTGCGGGT	0.11 kcal/mol
GAACGCACGTGGTTGG	-0.05 kcal/mol
TAGTGCACGTGAGGCT	0.23 kcal/mol
TTTACCACGTGTTTTG	-0.02 kcal/mol
TTTAGCACGTGAATAA	0.14 kcal/mol
ATTATCACGTGTTGTA	0.07 kcal/mol
TTAAGCACGTGTAAGA	0.01 kcal/mol
ATGTTCACGTGTGGCG	0.17 kcal/mol
GGAGTCACGTGGAGGA	0.13 kcal/mol
TATTACACGTGTATAG	0.07 kcal/mol
TTGGTCACGTGAGGAG	0.31 kcal/mol

Sequence	relative binding free energy
TGAAACACGTGTGATG	-0.05 kcal/mol
GTGAACACGTGGAGTG	0 kcal/mol
AGTGGCACGTGATTTT	0.1 kcal/mol
TATGGCACGTGTAAAT	0.1 kcal/mol
TGTCTCACGTGGGGAA	-0.07 kcal/mol
TTATTCACGTGAAGAT	0.3 kcal/mol
CGCGGCACGTGATAGG	-0.04 kcal/mol
AAGGGCACGTGGTGTT	-0.06 kcal/mol
CGTTACACGTGATGTT	0.25 kcal/mol
ATTATCACGTGGTTTG	0.08 kcal/mol
AAGATCACGTGGCGGG	0.1 kcal/mol
TTCAGCACGTGGGCTT	-0.23 kcal/mol
TTATTCACGTGCATTG	0.12 kcal/mol
TTGGGCACGTGGAGCA	-0.02 kcal/mol
GTGAGCACGTGTGTAA	0.14 kcal/mol
AAGATCACGTGGAATT	0.32 kcal/mol
GGAGTCACGTGTGATT	0.26 kcal/mol
CGTCGCACGTGGATGG	-0.01 kcal/mol
GTCGCCACGTGTGTGG	-0.02 kcal/mol
GAACACACGTGGGTGT	-0.06 kcal/mol
TTTGTCACGTGCAGAA	0.19 kcal/mol
TTAGGCACGTGTAGGA	-0.04 kcal/mol
AGTCACACGTGTGAGT	0.07 kcal/mol
GTGGACACGTGGCTTG	-0.07 kcal/mol
ATTGGCACGTGATGAA	-0.05 kcal/mol

Sequence	relative binding free energy
CTGGTCACGTGTGTGG	0.18 kcal/mol
TTTGACACGTGTCTGG	0.16 kcal/mol
CGTTTCACGTGGATGC	0.27 kcal/mol
AGAGTCACGTGTTGCA	0.06 kcal/mol
TATCACACGTGAGGGG	0.32 kcal/mol
TTAGTCACGTGTAGTG	0.11 kcal/mol
CTGGGCACGTGCTGGT	-0.15 kcal/mol
TAGTACACGTGATAGT	0.16 kcal/mol
TTAGTCACGTGGTGTG	0.09 kcal/mol
TATCACACGTGGAGGG	0.1 kcal/mol
TGAAACACGTGGATTT	0.12 kcal/mol
CTGTGCACGTGTGTTG	-0.02 kcal/mol
TTTGTCACGTGTAACA	0.31 kcal/mol
TGTTGCACGTGATGGT	0.13 kcal/mol
GGTTCCACGTGGAGGC	0.19 kcal/mol
CGAATCACGTGTTGTT	0.24 kcal/mol
TTTTTCACGTGGGACT	0.15 kcal/mol
TCGGGCACGTGAAGAG	0.05 kcal/mol
AAGTGCACGTGGCTTT	-0.15 kcal/mol
TTATACACGTGTGGAT	0.02 kcal/mol
TTGTGCACGTGTTTTG	0.05 kcal/mol
GCGGGCACGTGATAGG	-0.04 kcal/mol
TATGTCACGTGGGTAG	-0.03 kcal/mol
TCAGACACGTGGTTTG	-0.05 kcal/mol
TAGATCACGTGTTGAT	0.09 kcal/mol

Sequence	relative binding free energy
ACATACACGTGGGGGG	-0.07 kcal/mol
TCTTTCACGTGGGGGT	0.12 kcal/mol
TGATTCACGTGTGTGG	0.29 kcal/mol
ATTTGCACGTGCTGAT	0.03 kcal/mol
GCGATCACGTGGAGGG	0.14 kcal/mol
TTGAACACGTGATTGA	0.11 kcal/mol
TTGGACACGTGGATAA	-0.01 kcal/mol
GCGGGCACGTGTTCGT	0.04 kcal/mol
ACAGTCACGTGAGTGT	0.26 kcal/mol
TTATGCACGTGCTAGG	-0.13 kcal/mol
TGTCTCACGTGGCGTT	0.21 kcal/mol
GCTGGCACGTGAGGGC	0.16 kcal/mol
TTACACACGTGAGGTG	0.09 kcal/mol
GGTTTCACGTGTACAA	0.44 kcal/mol
AGGGACACGTGTCATA	0.1 kcal/mol
TCGGTCACGTGATATT	0.27 kcal/mol
ATAAACACGTGTGAGT	-0.02 kcal/mol
TAAGGCACGTGATATA	0.01 kcal/mol
TGTAGCACGTGTGACT	-0.13 kcal/mol
CGTCGCACGTGTGAGG	0.12 kcal/mol
GTTTACACGTGCATTT	0.19 kcal/mol
